In a compilation of properties of binary mixtures (doi:10.1021/acs.jced.3c00247):
The densities may have been worked out from excess volumes.

Test: xn = mol fraction of the nth substance listed
Settings: 100 kPa

Work on `C[C@H](N)C(=O)[O-].C[N+](C)(C)CCO` + O yielded a mass density (293.15 K, x1 = 0.097) of 1079.9 kg/m3, a mass density (293.15 K, x1 = 0.294) of 1119.4 kg/m3 and a mass density (293.15 K, x1 = 0.495) of 1125.7 kg/m3. It also gave a mass density (293.15 K, x1 = 0.597) of 1126.8 kg/m3, a mass density (293.15 K, x1 = 0.692) of 1127.8 kg/m3 and a mass density (293.15 K, x1 = 0.799) of 1128.4 kg/m3. The mass density (293.15 K, x1 = 0.899) was 1127.5 kg/m3, the mass density (293.15 K, x1 = 1) was 1128.2 kg/m3 and the mass density (298.15 K, x1 = 0.097) was 1077.4 kg/m3. The mass density (298.15 K, x1 = 0.198) was 1106.8 kg/m3, the mass density (298.15 K, x1 = 0.294) was 1116.5 kg/m3 and the mass density (298.15 K, x1 = 0.597) was 1123.9 kg/m3. It also gave a mass density (298.15 K, x1 = 0.692) of 1124.9 kg/m3, a mass density (298.15 K, x1 = 0.799) of 1125.5 kg/m3 and a mass density (298.15 K, x1 = 0.899) of 1124.6 kg/m3. The mass density (298.15 K, x1 = 1) was 1125.2 kg/m3, the mass density (303.15 K, x1 = 0.097) was 1074.8 kg/m3 and the mass density (303.15 K, x1 = 0.294) was 1113.6 kg/m3. For the same compound, the mass density (303.15 K, x1 = 0.495) was 1119.9 kg/m3, the mass density (303.15 K, x1 = 0.597) was 1120.9 kg/m3 and the mass density (303.15 K, x1 = 0.799) was 1122.5 kg/m3. The mass density (303.15 K, x1 = 0.899) was 1121.7 kg/m3 and the mass density (303.15 K, x1 = 1) was 1122.3 kg/m3.
